From the supplement of paper PMC12217912 come the findings set out here.

B1: TEV protease; numbered along this chain (parent)
chain: MGESLFKGPRDYNPISSSICHLTNESDGHTTSLYGIGFGPFIITNKHLFRRNNGTLVVQSLHGVFKVKDTTTLQQHLVDGRDMIIIRMPKDFPPFPQKLKFREPQREERICLVTTNFQTKSMSSMVSDTSCTFPSGDGIFWKHWIQTKDGQCGSPLVSTRDGFIVGIHSASNFTNTNNYFTSVPKNFMELLTNQEAQQWVSGWRLNADSVLWGGHKVFMVKPEEPFQPVKEATQL

Some of the results follow. The full chains were built here from the parent and the listed change. Values near 0.05 are background.

This assay covers variants of B1. Description: raw area under fraction-flipped curve 0-4 h after induction (AUC4h, not background-subtracted), DNA-recorder readout of cleavage of the substrate (dimensionless); higher = more cleavage of the substrate by the protease variant. Particulars: temperature: 34 °C; time window: 0-4 h after rhamnose induction. The method, then: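 In vivo DNA recorder in E. coli TOP10(DE3) ΔrhaA at 34 °C. Each TEVp single-site mutant (parent TEVp 0) is paired with a single-site variant of the 7-mer TEVs (canonical ENLYFQ|S). The substrate sits between flexible linkers in a Bxb1-sfGFP-TEVs-SsrA fusion, so cleavage stabilises Bxb1 and speeds flipping of a recombination array, read by NGS. The value is the raw area under the fraction-flipped curve over 0-4 h after rhamnose induction (AUC4h), with ≥20 reads per time point. It is not background-subtracted; inactive controls average about 0.047.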
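Further: Bxb1 expression induced with 0.2% (w/v) L-rhamnose at OD600 near 0.5, cultures sampled hourly, flipped fraction per protease–substrate barcode pair counted by paired-end Illumina sequencing.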

As to MGEMLFKGPRDYNPISSSICHLTNESDGHTTSLYGIGFGPFIITNKHLFRRNNGTLVVQSLHGVFKVKDTTTLQQHLVDGRDMIIIRMPKDFPPFPQKLKFREPQREERICLVTTNFQTKSMSSMVSDTSCTFPSGDGIFWKHWIQTKDGQCGSPLVSTRDGFIVGIHSASNFTNTNNYFTSVPKNFMELLTNQEAQQWVSGWRLNADSVLWGGHKVFMVKPEEPFQPVKEATQL [S4M], the “area with substrate ENLAFQS” value was determined as 0.062, the “area with substrate ENLDFQS” value was determined as 0.0606, the “area with substrate ENLEFQS” value worked out at 0.0715 and the “area with substrate ENLFFQS” value turned out to be 0.0857. Moreover, the “area with substrate ENLGFQS” value is 0.0604, the “area with substrate ENLHFQS” value came out at 0.0659, the “area with substrate ENLIFQS” value came to 0.0906 and the “area with substrate ENLKFQS” value worked out at 0.0752. Moreover, the “area with substrate ENLNFQS” value came to 0.0683, the “area with substrate ENLPFQS” value amounted to 0.0649, the “area with substrate ENLRFQS” value stood at 0.0685 and the “area with substrate ENLSFQS” value is 0.0725.

Turning to MGENLFKGPRDYNPISSSICHLTNESDGHTTSLYGIGFGPFIITNKHLFRRNNGTLVVQSLHGVFKVKDTTTLQQHLVDGRDMIIIRMPKDFPPFPQKLKFREPQREERICLVTTNFQTKSMSSMVSDTSCTFPSGDGIFWKHWIQTKDGQCGSPLVSTRDGFIVGIHSASNFTNTNNYFTSVPKNFMELLTNQEAQQWVSGWRLNADSVLWGGHKVFMVKPEEPFQPVKEATQL [S4N], the “area with substrate ENLAFQS” value was found to be 0.0651, the “area with substrate ENLDFQS” value was determined as 0.0745, the “area with substrate ENLEFQS” value was found to be 0.0793 and the “area with substrate ENLFFQS” value amounted to 0.0646. Moreover, the “area with substrate ENLHFQS” value worked out at 0.0735, the “area with substrate ENLIFQS” value was found to be 0.0623, the “area with substrate ENLKFQS” value is 0.0665 and the “area with substrate ENLLFQS” value stood at 0.0647. The “area with substrate ENLNFQS” value was 0.117, the “area with substrate ENLPFQS” value turned out to be 0.051, the “area with substrate ENLRFQS” value worked out at 0.0863 and the “area with substrate ENLSFQS” value was 0.0669. Besides, the “area with substrate ENLVFQS” value was 0.0928 and the “area with substrate ENLWFQS” value is 0.0948.

Regarding MGEGLFKGPRDYNPISSSICHLTNESDGHTTSLYGIGFGPFIITNKHLFRRNNGTLVVQSLHGVFKVKDTTTLQQHLVDGRDMIIIRMPKDFPPFPQKLKFREPQREERICLVTTNFQTKSMSSMVSDTSCTFPSGDGIFWKHWIQTKDGQCGSPLVSTRDGFIVGIHSASNFTNTNNYFTSVPKNFMELLTNQEAQQWVSGWRLNADSVLWGGHKVFMVKPEEPFQPVKEATQL [S4G], the “area with substrate ENLAFQS” value was found to be 0.0509, the “area with substrate ENLCFQS” value turned out to be 0.0841, the “area with substrate ENLDFQS” value was found to be 0.0586 and the “area with substrate ENLEFQS” value was determined as 0.062. The “area with substrate ENLFFQS” value came out at 0.102, the “area with substrate ENLHFQS” value was 0.075, the “area with substrate ENLIFQS” value was determined as 0.0677 and the “area with substrate ENLKFQS” value turned out to be 0.0904. The “area with substrate ENLLFQS” value was determined as 0.0696, the “area with substrate ENLNFQS” value is 0.0651, the “area with substrate ENLPFQS” value was 0.0531 and the “area with substrate ENLQFQS” value is 0.072. Further, the “area with substrate ENLWFQS” value was 0.0756.

For the variant MGESLFKGPRDYNCISSSICHLTNESDGHTTSLYGIGFGPFIITNKHLFRRNNGTLVVQSLHGVFKVKDTTTLQQHLVDGRDMIIIRMPKDFPPFPQKLKFREPQREERICLVTTNFQTKSMSSMVSDTSCTFPSGDGIFWKHWIQTKDGQCGSPLVSTRDGFIVGIHSASNFTNTNNYFTSVPKNFMELLTNQEAQQWVSGWRLNADSVLWGGHKVFMVKPEEPFQPVKEATQL [P14C], the “area with substrate ENLAFQS” value worked out at 0.0734, the “area with substrate ENLCFQS” value was 0.0695, the “area with substrate ENLDFQS” value stood at 0.0626 and the “area with substrate ENLEFQS” value came out at 0.0682. Also, the “area with substrate ENLFFQS” value is 0.0769, the “area with substrate ENLGFQS” value was determined as 0.0678, the “area with substrate ENLHFQS” value is 0.07 and the “area with substrate ENLIFQS” value stood at 0.0797. Besides, the “area with substrate ENLKFQS” value came to 0.0794, the “area with substrate ENLLFQS” value came to 0.0762, the “area with substrate ENLMFQS” value worked out at 0.063 and the “area with substrate ENLNFQS” value turned out to be 0.0583. Moreover, the “area with substrate ENLRFQS” value was determined as 0.0794, the “area with substrate ENLSFQS” value was determined as 0.0657, the “area with substrate ENLVFQS” value stood at 0.0757 and the “area with substrate ENLWFQS” value came out at 0.0721.

For the variant MGESLFKGPRAYNPISSSICHLTNESDGHTTSLYGIGFGPFIITNKHLFRRNNGTLVVQSLHGVFKVKDTTTLQQHLVDGRDMIIIRMPKDFPPFPQKLKFREPQREERICLVTTNFQTKSMSSMVSDTSCTFPSGDGIFWKHWIQTKDGQCGSPLVSTRDGFIVGIHSASNFTNTNNYFTSVPKNFMELLTNQEAQQWVSGWRLNADSVLWGGHKVFMVKPEEPFQPVKEATQL [D11A], the “area with substrate ENLAFQS” value was found to be 0.0707, the “area with substrate ENLCFQS” value is 0.079, the “area with substrate ENLDFQS” value was 0.0663 and the “area with substrate ENLEFQS” value is 0.0721. The “area with substrate ENLFFQS” value was found to be 0.0906, the “area with substrate ENLHFQS” value is 0.0693, the “area with substrate ENLKFQS” value came to 0.0765 and the “area with substrate ENLMFQS” value stood at 0.0711. In addition, the “area with substrate ENLNFQS” value stood at 0.0667, the “area with substrate ENLPFQS” value was found to be 0.0671, the “area with substrate ENLQFQS” value was found to be 0.0524 and the “area with substrate ENLSFQS” value stood at 0.066. Besides, the “area with substrate ENLVFQS” value was found to be 0.0824 and the “area with substrate ENLWFQS” value came out at 0.0621.

As to MGESLFKGPRQYNPISSSICHLTNESDGHTTSLYGIGFGPFIITNKHLFRRNNGTLVVQSLHGVFKVKDTTTLQQHLVDGRDMIIIRMPKDFPPFPQKLKFREPQREERICLVTTNFQTKSMSSMVSDTSCTFPSGDGIFWKHWIQTKDGQCGSPLVSTRDGFIVGIHSASNFTNTNNYFTSVPKNFMELLTNQEAQQWVSGWRLNADSVLWGGHKVFMVKPEEPFQPVKEATQL [D11Q], the “area with substrate ENLAFQS” value was 0.0855, the “area with substrate ENLDFQS” value worked out at 0.0625, the “area with substrate ENLEFQS” value is 0.0511 and the “area with substrate ENLFFQS” value turned out to be 0.0787. Besides, the “area with substrate ENLGFQS” value came to 0.0364, the “area with substrate ENLHFQS” value worked out at 0.0696, the “area with substrate ENLIFQS” value was found to be 0.07 and the “area with substrate ENLKFQS” value is 0.114. Also, the “area with substrate ENLLFQS” value was 0.0781, the “area with substrate ENLMFQS” value was found to be 0.0727, the “area with substrate ENLNFQS” value came to 0.0607 and the “area with substrate ENLPFQS” value was 0.0524. For the same variant, the “area with substrate ENLRFQS” value is 0.0727, the “area with substrate ENLSFQS” value is 0.0627, the “area with substrate ENLVFQS” value was determined as 0.0769 and the “area with substrate ENLWFQS” value amounted to 0.0652.

Turning to MGESLFKGPRLYNPISSSICHLTNESDGHTTSLYGIGFGPFIITNKHLFRRNNGTLVVQSLHGVFKVKDTTTLQQHLVDGRDMIIIRMPKDFPPFPQKLKFREPQREERICLVTTNFQTKSMSSMVSDTSCTFPSGDGIFWKHWIQTKDGQCGSPLVSTRDGFIVGIHSASNFTNTNNYFTSVPKNFMELLTNQEAQQWVSGWRLNADSVLWGGHKVFMVKPEEPFQPVKEATQL [D11L], the “area with substrate ENLAFQS” value was 0.0888, the “area with substrate ENLCFQS” value was determined as 0.0739, the “area with substrate ENLDFQS” value amounted to 0.0653 and the “area with substrate ENLEFQS” value worked out at 0.0651. Further, the “area with substrate ENLFFQS” value turned out to be 0.0741, the “area with substrate ENLGFQS” value was determined as 0.0662, the “area with substrate ENLHFQS” value came out at 0.0627 and the “area with substrate ENLIFQS” value was 0.0717. The “area with substrate ENLKFQS” value was 0.0677, the “area with substrate ENLLFQS” value came out at 0.0511, the “area with substrate ENLMFQS” value was found to be 0.071 and the “area with substrate ENLNFQS” value is 0.0505. Also, the “area with substrate ENLPFQS” value is 0.0626, the “area with substrate ENLQFQS” value was determined as 0.0704, the “area with substrate ENLRFQS” value stood at 0.0725 and the “area with substrate ENLSFQS” value is 0.0672. Besides, the “area with substrate ENLTFQS” value was determined as 0.0714, the “area with substrate ENLVFQS” value was 0.0898 and the “area with substrate ENLWFQS” value was 0.0748.

Consider MGESLFKGPCDYNPISSSICHLTNESDGHTTSLYGIGFGPFIITNKHLFRRNNGTLVVQSLHGVFKVKDTTTLQQHLVDGRDMIIIRMPKDFPPFPQKLKFREPQREERICLVTTNFQTKSMSSMVSDTSCTFPSGDGIFWKHWIQTKDGQCGSPLVSTRDGFIVGIHSASNFTNTNNYFTSVPKNFMELLTNQEAQQWVSGWRLNADSVLWGGHKVFMVKPEEPFQPVKEATQL [R10C], for which the “area with substrate ENLAFQS” value stood at 0.0691, the “area with substrate ENLCFQS” value is 0.0628, the “area with substrate ENLDFQS” value is 0.0645 and the “area with substrate ENLEFQS” value was found to be 0.0565. Besides, the “area with substrate ENLFFQS” value was found to be 0.0752, the “area with substrate ENLHFQS” value is 0.0696, the “area with substrate ENLLFQS” value came to 0.0836 and the “area with substrate ENLNFQS” value came to 0.0623. For the same variant, the “area with substrate ENLPFQS” value was determined as 0.0351, the “area with substrate ENLQFQS” value was 0.11, the “area with substrate ENLRFQS” value was 0.0653 and the “area with substrate ENLSFQS” value was found to be 0.054.

On to MGESLFKGPGDYNPISSSICHLTNESDGHTTSLYGIGFGPFIITNKHLFRRNNGTLVVQSLHGVFKVKDTTTLQQHLVDGRDMIIIRMPKDFPPFPQKLKFREPQREERICLVTTNFQTKSMSSMVSDTSCTFPSGDGIFWKHWIQTKDGQCGSPLVSTRDGFIVGIHSASNFTNTNNYFTSVPKNFMELLTNQEAQQWVSGWRLNADSVLWGGHKVFMVKPEEPFQPVKEATQL [R10G], for which the “area with substrate ENLAFQS” value stood at 0.0554, the “area with substrate ENLDFQS” value stood at 0.048, the “area with substrate ENLEFQS” value was found to be 0.0575 and the “area with substrate ENLFFQS” value stood at 0.0798. The “area with substrate ENLHFQS” value was found to be 0.0637, the “area with substrate ENLIFQS” value came to 0.0841, the “area with substrate ENLKFQS” value worked out at 0.0796 and the “area with substrate ENLLFQS” value is 0.0667. In addition, the “area with substrate ENLMFQS” value turned out to be 0.0726, the “area with substrate ENLNFQS” value amounted to 0.066, the “area with substrate ENLPFQS” value is 0.0578 and the “area with substrate ENLRFQS” value was determined as 0.0809. The “area with substrate ENLSFQS” value came to 0.062, the “area with substrate ENLVFQS” value amounted to 0.101 and the “area with substrate ENLWFQS” value came out at 0.059.
